Assay results taken from patent US8569472B2, “Efficient cell culture system for hepatitis C virus genotype 6A” (priority 2007, dated 2013).

Test system: Huh7.5 cells
Experiment: Cell viability, CellTiter 96 AQueous One Solution Cell Proliferation Assay
Assay type: cell-based, human
Settings: 500 IU/mL interferon-α2b, 20 μM ribavirin or 50 μM amantadine

Compound | cytotoxic effect
NC12CC3CC(CC(C3)C1)C2 [amantadine] | No significant cytotoxic effect
NC(=O)c1ncn([C@@H]2O[C@H](CO)[C@@H](O)[C@H]2O)n1 [ribavirin] | No significant cytotoxic effect
